Results: a collection of fitness landscapes (doi:10.1126/science.1257360)
This is one part of the list.

B1: PhoQ; a variant is named by its letters at X, in order, P23837 (parent)
chain: MKKLLRLFFPLSLRVRFLLATAAVVLVLSLAYGMVALIGYSVSFDKTTFRLLRGESNLFYTLAKWENNKLHVELPENIDKQSPTMTLIYDENGQLLWAQRDVPWLMKMIQPDWLKSNGFHEIEADVNDTSLLLSGDHSIQQQLQEVREDDDDAEMTHSVAVNVYPATSRMPKLTIVVVDTIPVELKSSYMVWSWFIYVLSANLLLVIPLLWVAAWWSLRPIEALAKEVRELEEHNRELLNPATTRELTSLVRNLNRLLKSERERYDKYRTTLTDLTHSLKTPLXXLQXXLRSLRSEKMSVSDAEPVMLEQISRISQQIGYYLHRASMRGGTLLSRELHPVAPLLDNLTSALNKVYQRKGVNISLDISPEISFVGEQNDFVEVMGNVLDNACKYCLEFVEISARQTDEHLYIVVEDDGPGIPLSKREVIFDRGQRVDTLRPGQGVGLAVAREITEQYEGKIVAGESMLGGARMEVIFGRQHSAPKDE

Variants of: B1
Assay: enrichment ratio after two sorts for PhoP signalling (ratio (wild type AVST 3.29)); higher = more functional
Conditions: with PhoP (E. coli)

Variant	enrichment ratio
EIDW	≤ 0.25
RQFH	≤ 0.25
WKTW	≤ 0.25
WAFQ	≤ 0.25
WMGD	≤ 0.25
PCPC	≤ 0.25
PKQD	≤ 0.25
MVIS	≤ 0.25
DLTP	≤ 0.25
YEPC	≤ 0.25
SSII	16.3
TDAQ	13.4
QIVH	≤ 0.25
WHKM	≤ 0.25
PYVR	0.636
KTTC	≤ 0.25
LHKE	≤ 0.25
FIEL	≤ 0.25
TPFW	≤ 0.25
NTFC	≤ 0.25
EMGF	≤ 0.25
PHLW	≤ 0.25
SFNG	≤ 0.25
GYWD	≤ 0.25

Variant	enrichment ratio
AHCA	≤ 0.25
DGTD	≤ 0.25
YQYL	≤ 0.25
YLAV	0.272
IESI	≤ 0.25
IRNT	≤ 0.25
IVCC	≤ 0.25
RHHM	≤ 0.25
QFMD	≤ 0.25
NEYH	≤ 0.25
PWDS	≤ 0.25
KAGA	≤ 0.25
CDYT	≤ 0.25
FPQE	≤ 0.25
IVRT	≤ 0.25
IPDY	≤ 0.25
LIWE	≤ 0.25
TINY	≤ 0.25
SMEL	≤ 0.25
FHRP	≤ 0.25
LNRP	≤ 0.25
ARTN	≤ 0.25
RFHP	≤ 0.25
QKNY	≤ 0.25

Variant	enrichment ratio
GQHN	≤ 0.25
MMHY	≤ 0.25
WLQR	≤ 0.25
LFRG	≤ 0.25
QKHW	≤ 0.25
PWSQ	≤ 0.25
HFPM	≤ 0.25
EGFP	≤ 0.25
SNLG	8.87
QVYM	≤ 0.25
WESS	≤ 0.25
PPSM	≤ 0.25
HLLA	≤ 0.25
MIGR	0.36
IRLP	≤ 0.25
FVFS	≤ 0.25
LIPK	≤ 0.25
SNFP	≤ 0.25
GMDR	≤ 0.25
QAQE	≤ 0.25
MRPS	≤ 0.25
DMCM	≤ 0.25
NFFN	≤ 0.25
WQKE	≤ 0.25

Variant	enrichment ratio
DCNY	≤ 0.25
PFQG	≤ 0.25
QYHV	0.497
KYTA	≤ 0.25
NKTE	≤ 0.25
EFVL	≤ 0.25
WMLC	≤ 0.25
TTNF	6.07
SADR	≤ 0.25
IRHF	≤ 0.25
WPSF	≤ 0.25
YGTQ	≤ 0.25
GMCY	3.55
NMLR	≤ 0.25
ARPH	≤ 0.25
YPQD	≤ 0.25
RRPA	≤ 0.25
AMNI	≤ 0.25
FALM	17
SAWT	≤ 0.25
PDPL	≤ 0.25
LAMR	≤ 0.25
YRDR	≤ 0.25
PVCG	≤ 0.25

Variant	enrichment ratio
DDRM	≤ 0.25
WTCF	≤ 0.25
VMYF	≤ 0.25
TNAH	4.19
YPWR	≤ 0.25
KTWG	≤ 0.25
RRTV	≤ 0.25
SKKY	≤ 0.25
LHHQ	≤ 0.25
LYFV	≤ 0.25
KPMC	≤ 0.25
VNAC	≤ 0.25
SVLG	9.57
VFMR	≤ 0.25
WPKH	≤ 0.25
QNSH	≤ 0.25
QCTL	≤ 0.25
AWGH	≤ 0.25
KHQY	≤ 0.25
KMHS	≤ 0.25
THFD	≤ 0.25
KVTE	≤ 0.25
TSEQ	≤ 0.25
NSEE	≤ 0.25

Variant	enrichment ratio
QTDK	≤ 0.25
HHMF	≤ 0.25
VPHA	≤ 0.25
CLCF	≤ 0.25
AYTW	≤ 0.25
YADW	≤ 0.25
AHKC	≤ 0.25
FDWR	≤ 0.25
PYYF	≤ 0.25
ATVH	10.8
DSQA	≤ 0.25
GMRG	≤ 0.25
LDGI	≤ 0.25
ETKL	≤ 0.25
FRIV	≤ 0.25
TTKI	≤ 0.25
MVKF	≤ 0.25
IDVI	≤ 0.25
LQGY	≤ 0.25
DGEY	≤ 0.25
IYNF	≤ 0.25
GRYD	≤ 0.25
WMTL	≤ 0.25
RDMW	≤ 0.25

Variant	enrichment ratio
HRGM	≤ 0.25
VSID	≤ 0.25
INAN	≤ 0.25
QMFW	≤ 0.25
KAQS	≤ 0.25
ELRC	≤ 0.25
NWKS	≤ 0.25
NHWP	≤ 0.25
NYEQ	≤ 0.25
SSEF	0.399
DTEL	≤ 0.25
ADHC	≤ 0.25
NQQG	≤ 0.25
KFEQ	≤ 0.25
MLPN	≤ 0.25
EHRS	≤ 0.25
FEWY	≤ 0.25
RHVA	≤ 0.25
SMFG	0.583
YIPS	≤ 0.25
RFLM	≤ 0.25
WYHC	≤ 0.25
VYCT	≤ 0.25
ADDN	≤ 0.25

Variant	enrichment ratio
LGAP	≤ 0.25
DDTP	≤ 0.25
KDFC	≤ 0.25
QAIP	≤ 0.25
NMAE	≤ 0.25
PLAS	≤ 0.25
KMLT	≤ 0.25
QKGR	≤ 0.25
QTAK	≤ 0.25
QCSY	≤ 0.25
ISCN	≤ 0.25
LNMA	≤ 0.25
SWTQ	≤ 0.25
NYWW	≤ 0.25
ECLF	≤ 0.25
VHYT	≤ 0.25
VEAK	≤ 0.25
KHYE	≤ 0.25
LGIC	≤ 0.25
NFIA	≤ 0.25
YKLC	≤ 0.25
RPRK	≤ 0.25
NGLF	≤ 0.25
SAFV	≤ 0.25

Variant	enrichment ratio
WPGG	0.855
YVSH	≤ 0.25
ADDS	≤ 0.25
KCLC	≤ 0.25
RYHN	≤ 0.25
NKCA	≤ 0.25
VWWL	≤ 0.25
MVAH	12.3
YALL	10.6
VPWT	≤ 0.25
LNGA	≤ 0.25
FTFS	≤ 0.25
NMRD	≤ 0.25
QVRP	≤ 0.25
KYTS	≤ 0.25
WRSI	≤ 0.25
IKHI	≤ 0.25
SMPF	≤ 0.25
DGWL	≤ 0.25
TVPG	≤ 0.25
NKVM	≤ 0.25
SDEP	≤ 0.25
AAPE	≤ 0.25
MWLP	≤ 0.25

Variant	enrichment ratio
YSIM	9.6
FTVC	≤ 0.25
DAHD	≤ 0.25
GMWH	≤ 0.25
DWNL	≤ 0.25
IKQW	≤ 0.25
NTKW	≤ 0.25
VVWE	≤ 0.25
KNTI	≤ 0.25
PMIC	≤ 0.25
LHIY	≤ 0.25
IVMD	≤ 0.25
QVGI	≤ 0.25
HKIC	≤ 0.25
PYEL	≤ 0.25
IVIA	≤ 0.25
TLQQ	10.1
PPMF	≤ 0.25
SETF	9.36
TKMP	≤ 0.25
QSHV	11.3
IWIP	≤ 0.25
VHAC	≤ 0.25
TPKL	≤ 0.25

Variant	enrichment ratio
FEVH	≤ 0.25
NSPS	≤ 0.25
YYVM	≤ 0.25
PWFK	≤ 0.25
ILRV	≤ 0.25
GRFA	≤ 0.25
WCPL	≤ 0.25
FSGD	≤ 0.25
GPSD	≤ 0.25
HHGR	≤ 0.25
NPSS	≤ 0.25
SCTW	9.5
MQMW	≤ 0.25
MNHN	≤ 0.25
AFTK	≤ 0.25
RCTW	≤ 0.25
ADAL	≤ 0.25
EGCK	≤ 0.25
QGAD	≤ 0.25
WTRL	≤ 0.25
GYPV	≤ 0.25
ADYK	≤ 0.25
HATM	≤ 0.25
TIRD	≤ 0.25

Variant	enrichment ratio
ACFW	≤ 0.25
MPNG	≤ 0.25
FEVG	2.78
EECW	≤ 0.25
EAEE	≤ 0.25
KPLQ	≤ 0.25
VHTS	≤ 0.25
AALN	8.23
SYMI	0.48
TDPT	≤ 0.25
IAIS	≤ 0.25
RVRL	≤ 0.25
QMCL	≤ 0.25
DFNV	≤ 0.25
ASAH	6.11
EKYS	≤ 0.25
PPPK	≤ 0.25
YFIF	≤ 0.25
PEEE	≤ 0.25
SYWS	≤ 0.25
TPYF	≤ 0.25
ASVF	9.65
MYAR	≤ 0.25
EIPG	≤ 0.25

Variant	enrichment ratio
ADFE	≤ 0.25
EDYF	≤ 0.25
GNIF	≤ 0.25
YQMF	≤ 0.25
WSCG	≤ 0.25
FGSM	≤ 0.25
SLML	7.15
KHTF	≤ 0.25
REQY	≤ 0.25
IMFI	≤ 0.25
VNRD	≤ 0.25
YWKI	≤ 0.25
TAAC	8.73
PGPE	≤ 0.25
DPTH	≤ 0.25
TWCG	≤ 0.25
GFQP	≤ 0.25
NWFM	≤ 0.25
